Results on 167 variants are retold here after the RNAGym collection of RNA variant scans (doi:10.1093/nar/gkz1192).

Read counts are not given, so values of variants with three or more changes are uncertain.

Sequences and labels used below:
B1: CPEB3 Ribozyme (parent)
chain: UAACAGGGGGCCACAGCAGAAGCGUUCACGUCGCAGCCCCUGUCAGAUUCUGGUGAAUCUGCGAAUUCUGCUGUAUAUCUC

Variants of B1 are the subject of the data set. The data set is described as follows: self-cleavage, relative activity (ratio to wild type); higher = more cleavage; in vitro, sequencing. Summed up: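 CPEB3 self-cleaving ribozyme mutant libraries were made by rounds of error-prone PCR, barcoded, and transcribed in vitro with T7 RNA polymerase for 5 hours at 37°C. Cleavage occurred during transcription and a 15 min DNase I step before EDTA stop. RNAs were reverse transcribed with template switching and Illumina-sequenced, with DNA sequencing mapping barcodes to variants. Relative activity is the variant's cleaved/total read fraction divided by wild type's (minimum 5 reads), averaged across three batches.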
Consider G9U G24A C39G U49C, for which the self-cleavage came out at 0.04.
For G10U A21G G36C U54A G63A U66C U69A, the self-cleavage was 0.04.
Turning to G9C C12U A15G U72C, the self-cleavage was found to be 0.4.
The same measure for G10A U25C U26C A56U: 0.09; for G10A A18G C40U U67C U72A A75U U78C: 0.03.
On to G10A A21U U51C, for which the self-cleavage is 0.07.
The same measure for G10A C29G U54G A56G U78C C79U: 0; for G10A A15G G24A C39A U60C: 0.21; for G10A A18U U41A U51C: 0.05.
Next, G10A U26C C40A A45U: 0.05; C11A A75G U78C: 0.06; C11A A18G U31C U54C: 0.07.
The same measure for G9U U41G A56G A65U U78C: 0.24.
G9U C12U C38U U78C: the self-cleavage was 0.52.
Next, G10U A15G A45U U48C A56G U69A U74A: 0.05; G10C U31A C37U G73A: 0.08; G10A C14U C29A: 0.39.
The same measure for G10U A21G C50U U67A: 0.17; for G10A U25C U31C A35U U72C: 0.09; for G9U C12G C44G A45U A57G: 0.04.
For G10A A20G U31C A45U A57G U66C A75G, the self-cleavage was found to be 0.02.
Next, G10U U48A U80C: 0.17.
Take C11A U26C C40A U69A U72C: the self-cleavage stood at 0.1.
The same measure for G10C U43C U48C U51C A56G U66C: 0.06; for G10A A64G U67C: 0.09; for G10U G16C U43A A64U U69C: 0.07.
The same measure for G10A U60C U78C U80A: 0.04.
Next, C11A A21G U43C U48C U51C U67C U78C: 0.04; G10A A20G A45U: 0.04.
With G9U U48C U51C, the self-cleavage came to 0.05.
Next, G10A A13U A20G U43A A45U U74C: 0.05.
Next, G9U A20G A35U U60C: 0.18; C11A U26C C50G U69C: 0.09; C11A A15C A45C: 0.06.
As to G10C U43A A64G, the self-cleavage stood at 0.16.
Regarding G9U G10A A13U C40U, the self-cleavage is 0.09.
The same measure for G10C U51C A56G U78A: 0.04; for G10U A20G A64U A77G: 0.15; for C11A A13G U31A C44G A57G U67C A77U: 0.02.
The same measure for C11A U66C A75U: 0.06; for G9C U26A C34A U51G U72A C81U: 0.03.
Next, G9A U54C A65U: 0.05.
Consider C11A A13U U54A U66C, for which the self-cleavage was 0.05.
Regarding G9C A15G C40A, the self-cleavage was determined as 0.28.
Next, C11A A21G C23U A28G A35G G36C: 0.03; G10U C11U A20U: 0.14; G9U A21G U25C G30U: 0.16.
Next, G9U U25C U54C U60C U80A: 0.06; G10A A21G U78C: 0.06.
The same measure for G9C A18G U26C C27A A56G U67A: 0.04; for G10A C23U G61A U66A C71A: 0.03.
Consider C11A A15U A35C U41C U72C, for which the self-cleavage was 0.54.
Next, G10A U41A U51C: 0.12; C11A A15C C38A U48C A77U: 0.04; G9U A56G U69A U72C A77U: 0.03.
The same measure for C11A G46C U51A C62U: 0.13; for G10A C11A U76C U78C: 0.24; for C11A A45G A64U U67A: 0.06.
Next, G10A A20U U31C: 0.24.
As to G10C A15U A28G G33A U76G, the self-cleavage came out at 0.09.
Next, G10A U26C U43C U67C U69A: 0.05; G9U A21G U41C: 0.09; G9C G33A A64G: 0.3.
The same measure for G9U A15G A28U C40U A45U C62U U72A: 0.03.
Next, G10U C29U U41C: 0.08; G9U U31C A56G: 0.1; G10C A57G U72A U76C: 0.13.
On to G10U C29A A57G, for which the self-cleavage was determined as 0.05.
Next, C11A A15U U25C U51A U60C G61A: 0.07.
Next, G10A A13U A18G C29U A35G U41A: 0.05; G10C A13C A35U U54A: 0.22; G10C C17A G46A G70A A75G: 0.11.
Consider G9C C40U U54A A64G, for which the self-cleavage is 0.1.
Next, G10A A18G U58C U66A: 0.05; G10A A18G A35G C59U U67A U74A: 0.12; G10C A21U U25C: 0.34.
In the case of G9U A28G A56U, the self-cleavage turned out to be 0.17.
With G10A C32A G63A U69A, the self-cleavage turned out to be 0.07.
The same measure for G10C U41A U48G: 0.05.
The same measure for G10U C32U A56G: 0.05; for G9U G30U G63C: 0.11; for G10U A20U A57U: 0.1.
Next, G10C A47U U49A U69A U80C: 0.1; G10A A28U U54C: 0.06.
For the variant G9U A15G U48C U66C, the self-cleavage amounted to 0.23.
With G10A A15U U25C U41C A64G, the self-cleavage turned out to be 0.16.
The same measure for C11A U66C U74C: 0.47; for G10U A13U A18U U43C: 0.13; for G10A U51C G61C U72A: 0.07.
As to G9A U74C A75G, the self-cleavage was determined as 0.31.
The same measure for G10A A18G A20G U78G: 0.3; for G10A U43A U72A U74C U80A: 0.11.
As to G9A U49C U60A A64G U78C, the self-cleavage is 0.28.
For the variant C11A C32U C38G, the self-cleavage was determined as 0.05.
With G10A A18G A35G, the self-cleavage amounted to 0.13.
For the variant G9A U51C U80A, the self-cleavage turned out to be 0.41.
Take C11A U26A U31A U60C U66C U76C: the self-cleavage worked out at 0.07.
The same measure for G9C U43C A64G: 0.16; for G10A A28U U48A C50A U66C: 0.05; for G9U C12U U48A A75U: 0.14.
The same measure for G9U G19C C40G A77G: 0.06; for G9C G16C U41C U54C A64G U74A: 0.04; for G9U U60C A77C: 0.18.
Next, G9U U25C C32U U49C U60C U76C: 0.05; G9C A28C U31A: 0.05.
Take G9U A20G U51A U69C U76C: the self-cleavage was determined as 0.18.
The same measure for G10A C32U U49A U51A U67C: 0.06.
The same measure for G10C U60C A64G: 0.11; for G9U A18G A20G A64U U66C: 0.05.
Next, G9U U41C U49C: 0.18; G10A A13C U49C G73U: 0.47.
Regarding G10A A47U A57G U76C, the self-cleavage worked out at 0.12.
In the case of G10C G24A G36C G52A A57G U58C U72C, the self-cleavage was 0.04.
The same measure for G10A U25C U43A A45G U67A U69C U78C: 0.05; for G10C A18G A45G U67C: 0.19; for G10C C38G G42A A47G U49C U80C: 0.04.
The same measure for G10A A15G U41C G61A U72A: 0.06; for G10A A21G U66A U69C: 0.3.
Next, G10A A13G U25G U58C A65U U72A: 0.05; G10C G19U C50A: 0.04; G10C U48A U49C U80A: 0.1.
Regarding G9U C50U U67C, the self-cleavage came to 0.02.
Next, G9C G30C A35G U49C U69A U72A: 0.04; C11G A18G U43A U54C: 0.1; G10A A28G A35G U49A: 0.12.
Next, C11A U54C U80C: 0.14; G10C A13G U41A U66C U74C: 0.2.
In the case of G10U A28G C32U A45C, the self-cleavage stood at 0.05.
Next, G9U A15G A20G U31C U69G: 0.21.
Next, G10C A45G U49C: 0.27.
Next, C11G A15G U60A: 0.22; G10C A35G U58C U69C U72C: 0.06; G10A C17U U72C: 0.21.
On to G10C U26C A35U U69A, for which the self-cleavage stood at 0.07.
Next, G10A A18G U26C C44U C62U U76A: 0.15; G10C U26A U54C U60A: 0.06.
The same measure for G10U U41C G63U U74A: 0.46.
The same measure for G10A G24U U25C U26A U41C: 0.17.
C11A A18G U26A U54G A56U A77U: the self-cleavage is 0.05.
The same measure for C11G A13U A28U A45G U72C: 0.61.
In the case of C11A U31G U67A, the self-cleavage turned out to be 0.07.
The same measure for G9U A28G U80C: 0.15; for G10C C11A G24A U80C: 0.29.
Take G9U U51A C81U: the self-cleavage was 0.21.
As to G10A A15U U26G C39U U54G G73A U80C, the self-cleavage is 0.03.
The same measure for G10U A35G C37U C81A: 0.73; for G10A A20G A57U: 0.12; for G10C C17A G30A U43C U58C U69A: 0.09.
Next, C11A U26C A35U U54C U80C: 0.05.
Next, C11A A28U U67A: 0.32; G10C U25A C29U A56G C62A: 0.06.
Consider G9U U49C A57U, for which the self-cleavage worked out at 0.09.
Next, C11A A28U A45G: 0.06.
Next, G10C U43A A45G U74C U78C: 0.16; C11A A13U U31A A57G G61A A64G C68A: 0.04.
The same measure for G10A A28C C32A U69G: 0.05; for C11A A21G A45G: 0.34.
Regarding G9U A13U A15G A18G U60A G73A U80G, the self-cleavage worked out at 0.4.
Regarding G9C A13U U26C A35G U78A, the self-cleavage stood at 0.09.
For G9C A47C A64G U66C, the self-cleavage was found to be 0.27.
The same measure for G10A A18G C32U U41A G52C U76C: 0.17.
The same measure for G10A C32A A64G U80C: 0.65; for G10U A18C U31C U49C U60C: 0.13.
The same measure for G10A A20G A21G G24A C37A G42A U78C: 0.04; for C11A U48C U54C A57G: 0.22.
With G9U A18U U25C G73U, the self-cleavage turned out to be 0.08.
Next, G10A U43G A47U A64U U74C: 0.14.
